Reference: PubChem BioAssay AID624151 (Broad Institute, 2012)
Screen size: about 28,000 compounds; about 410 (1.5%) were called active. This list was built around the results that the source calls inconclusive (neither active nor inactive); the mix of calls is not that of the screen. Cut-off read from the data, not from the text of the source: active = activation above about 52%; inconclusive = no clear call, values can overlap the other calls; inactive = below that.

Experiment: mutant p53 pathway re-activators, primary screen, cell-based, SW480, luciferase, single point, HTS (AID 624151)
Details: SW480 PUMA-promoter luciferase, p53 mutant reactivation; at 9.98 µM; active compounds read high

**Q.** Which activation does the source give for `NCC(=O)Nc1ccc(Br)cc1C(=O)c1ccccc1` here?
**A.** The activation was active: 113%.

**Q.** For `CC[C@@H](CO)NC(=O)[C@@H]1C=C2c3cccc4c3c(cn4C)C[C@H]2N(C)C1`, which activation is on record?
**A.** Its activation is inactive: -3.26%.

**Q.** Which activation does the source give for `COc1ccc(-c2cc(=O)c3c(OC)c(OC)c(OC)cc3o2)cc1` here?
**A.** Its activation is inconclusive: 51.4%.

**Q.** For `CC1C/C=C/C2C3OC3(C)C(C)C3C(Cc4ccccc4)NC(=O)C23OC(=O)O/C=C/C(C)(O)C1=O` (configuration not stated), which activation is on record?
**A.** Its activation is inactive: -16.5%.

**Q.** Which activation does the source give for `CC(C)(C)C(=O)c1cn(CC(=O)NCc2ccco2)c2ccccc12` here?
**A.** The activation was inconclusive: 51.3%.

**Q.** With `CCCN1CCc2cc(O)cc3c2[C@H]1Cc1ccc(O)c(O)c1-3` as the molecule, how does the activation read?
**A.** The activation was inactive: 12.6%.

**Q.** For `CC(=O)Oc1ccc(/C=C/c2cc(OC(C)=O)cc(OC(C)=O)c2)cc1`, which activation is on record?
**A.** Its activation is inconclusive: 53.6%.
